Laboratory results published in the supplement of paper PMC4967469.
IC50 is the fitted dose that halves viability relative to control wells, and lower means more sensitive; a limit (>, <) means that the fit lies beyond the doses tested. AUC sums up the same curve from the lowest dose to the 256-fold higher top dose; it is 1 without any effect and falls as sensitivity rises. For part of these data: A top dose marked as inferred is not printed in the source and was worked back from the curve model. For part of these data: An entry number marks a drug with two screens in the source, which often give different values.

What was measured:
Assay in all cases: Viability of human cancer cell lines after 72 h of drug (GDSC screen)
Docetaxel = compound: CC(=O)O[C@@]12CO[C@@H]1C[C@H](O)[C@@]1(C)C(=O)[C@H](O)C3=C(C)[C@@H](OC(=O)[C@H](O)[C@@H](NC(=O)OC(C)(C)C)c4ccccc4)C[C@@](O)([C@@H](OC(=O)c4ccccc4)[C@H]21)C3(C)C [Docetaxel]; conditions: top dose 0.0125 µM
Experimental: (§1)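 Human cancer cell lines in 384-well plates, medium with 10% serum, drug for 72 h over a 256-fold dose range (nine 2-fold or five 4-fold steps up to the top dose). Adherent lines were fixed and stained with the nucleic acid dye Syto60, suspension lines read with resazurin; signal relative to control wells, capped at 0 and 100%. One two-parameter sigmoid per drug and line, fitted in a mixed model over all curves with the slope shared within a line.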

YM155 = compound: COCC[n+]1c2c(n(Cc3cnccn3)c1C)C(=O)c1ccccc1C2=O [YM155]; conditions: top dose 5.12 µM
Experimental: as §1

AMG-706 = compound: CC1(C)CNc2cc(NC(=O)c3cccnc3NCc3ccncc3)ccc21 [AMG-706]; conditions: top dose 2 µM; top dose inferred
Experimental: as §1

JNJ-26854165 = compound: c1ccc2c(CCNc3ccc(Nc4ccncc4)cc3)c[nH]c2c1 [JNJ-26854165]; conditions: top dose 10 µM
Experimental: as §1

CGP-60474 = compound: OCCCNc1cc(-c2ccnc(Nc3cccc(Cl)c3)n2)ccn1 [CGP-60474]; conditions: top dose 0.256 µM; top dose inferred
Experimental: as §1

FTI-277 = compound: COC(=O)[C@H](CCSC)NC(=O)c1ccc(NC[C@@H](N)CS)cc1-c1ccccc1 [FTI-277]; conditions: top dose 1.024 µM; top dose inferred
Experimental: as §1

JNK Inhibitor VIII = compound: CCOc1nc(NC(=O)Cc2cc(OC)ccc2OC)cc(N)c1C#N [JNK Inhibitor VIII]; conditions: top dose 10 µM; top dose inferred
Experimental: as §1

Belinostat = compound: O=C(/C=C/c1cccc(S(=O)(=O)Nc2ccccc2)c1)NO [Belinostat]; conditions: top dose 20 µM; top dose inferred
Experimental: as §1

Cyclopamine = compound: CC1=C2C[C@H]3[C@@H](CC=C4C[C@@H](O)CC[C@@]43C)[C@@H]2CC[C@]12O[C@@H]1C[C@H](C)CN[C@H]1[C@H]2C [Cyclopamine]; conditions: top dose 16 µM; top dose inferred
Experimental: as §1

OSI-906 = compound: C[C@]1(O)C[C@@H](c2nc(-c3ccc4ccc(-c5ccccc5)nc4c3)c3c(N)nccn32)C1 [OSI-906]; conditions: top dose 2.56 µM; top dose inferred
Experimental: as §1

SB-715992 = compound: Cc1ccc(C(=O)N(CCCN)[C@@H](c2nc3cc(Cl)ccc3c(=O)n2Cc2ccccc2)C(C)C)cc1 [SB-715992]; conditions: top dose 0.128 µM; top dose inferred
Experimental: as §1

JQ1 = compound: Cc1sc2c(c1C)C(c1ccc(Cl)cc1)=N[C@@H](CC(=O)OC(C)(C)C)c1nnc(C)n1-2 [JQ1]
Experimental: as §1

NVP-TAE684 = compound: COc1cc(N2CCC(N3CCN(C)CC3)CC2)ccc1Nc1ncc(Cl)c(Nc2ccccc2S(=O)(=O)C(C)C)n1 [NVP-TAE684]; conditions: top dose 2 µM
Experimental: as §1

NSC-207895 = compound: CN1CCN(c2ccc([N+](=O)[O-])c3no[n+]([O-])c23)CC1 [NSC-207895]; conditions: top dose 20 µM; top dose inferred
Experimental: as §1

[1] = top dose 1 µM, screen: GDSC drug entry 1218, top dose inferred
[2] = top dose 2.56 µM, screen: GDSC drug entry 163

Cell Line	AUC (Docetaxel)	IC50 (Docetaxel) [nM]	AUC (YM155)	IC50 (YM155) [nM]	AUC (AMG-706)	IC50 (AMG-706) [nM]	AUC (JNJ-26854165)	IC50 (JNJ-26854165) [nM]	AUC (CGP-60474)	IC50 (CGP-60474) [nM]	AUC (FTI-277)	IC50 (FTI-277) [nM]	AUC (JNK Inhibitor VIII)	IC50 (JNK Inhibitor VIII) [nM]	AUC (Belinostat)	IC50 (Belinostat) [nM]	AUC (Cyclopamine)	IC50 (Cyclopamine) [nM]	AUC (OSI-906)	IC50 (OSI-906) [nM]	AUC (SB-715992)	IC50 (SB-715992) [nM]	AUC (JQ1; [1])	IC50 (JQ1; [1]) [nM]	AUC (JQ1; [2])	IC50 (JQ1; [2]) [nM]	AUC (NVP-TAE684)	IC50 (NVP-TAE684) [nM]	AUC (NSC-207895)	IC50 (NSC-207895) [nM]
H9 (lymphoid neoplasm, suspension)	0.901	11	0.987	> 5120	0.991	> 2000	0.989	> 10000	0.769	80.5	0.99	> 1020	0.992	> 10000	0.987	> 20000	0.986	> 16000	0.992	> 2560	0.826	59.8	0.983	> 1000	0.534	195	0.899	1730	0.982	> 20000
HC-1 (hairy cell leukaemia, suspension)	0.947	> 12.5	0.023	< 20	0.987	> 2000	0.871	8810	0.635	37.1	0.981	> 1020	0.987	> 10000	0.203	174	0.933	> 16000	0.981	> 2560	0.635	18.6	0.984	> 1000	0.824	1450	0.899	> 2000	0.828	11700
HCC1187 (breast, suspension)	0.59	1.36	0.064	< 20	0.988	> 2000	0.921	> 10000	0.844	170	0.985	> 1020	0.982	> 10000	0.777	7650	0.982	> 16000	0.958	> 2560	0.543	10.4	0.984	> 1000	0.833	1540	0.867	1650	0.929	> 20000
HCC2218 (breast, suspension)	0.963	> 12.5	0.056	< 20	0.984	> 2000	0.963	> 10000	0.816	191	0.966	> 1020	0.983	> 10000	0.713	5900	0.947	> 16000	0.984	> 2560	0.814	93.4	0.93	> 1000	0.799	1610	0.97	> 2000	0.967	> 20000
